# Out of some 310,000 compounds screened, about 2,200 (0.71%) showed an effect of 50% or more. The effect is printed as a negative number. The list shows a part of the results.
# Molecular target: human ether-à-go-go-related gene (hERG) potassium channel (human, UniProt Q12809)
# Test: primary screen, population patch clamp on CHO cells stably expressing hERG
# human ether-à-go-go-related gene (hERG) potassium channel, sequence (Q12809 whole entry, looked up): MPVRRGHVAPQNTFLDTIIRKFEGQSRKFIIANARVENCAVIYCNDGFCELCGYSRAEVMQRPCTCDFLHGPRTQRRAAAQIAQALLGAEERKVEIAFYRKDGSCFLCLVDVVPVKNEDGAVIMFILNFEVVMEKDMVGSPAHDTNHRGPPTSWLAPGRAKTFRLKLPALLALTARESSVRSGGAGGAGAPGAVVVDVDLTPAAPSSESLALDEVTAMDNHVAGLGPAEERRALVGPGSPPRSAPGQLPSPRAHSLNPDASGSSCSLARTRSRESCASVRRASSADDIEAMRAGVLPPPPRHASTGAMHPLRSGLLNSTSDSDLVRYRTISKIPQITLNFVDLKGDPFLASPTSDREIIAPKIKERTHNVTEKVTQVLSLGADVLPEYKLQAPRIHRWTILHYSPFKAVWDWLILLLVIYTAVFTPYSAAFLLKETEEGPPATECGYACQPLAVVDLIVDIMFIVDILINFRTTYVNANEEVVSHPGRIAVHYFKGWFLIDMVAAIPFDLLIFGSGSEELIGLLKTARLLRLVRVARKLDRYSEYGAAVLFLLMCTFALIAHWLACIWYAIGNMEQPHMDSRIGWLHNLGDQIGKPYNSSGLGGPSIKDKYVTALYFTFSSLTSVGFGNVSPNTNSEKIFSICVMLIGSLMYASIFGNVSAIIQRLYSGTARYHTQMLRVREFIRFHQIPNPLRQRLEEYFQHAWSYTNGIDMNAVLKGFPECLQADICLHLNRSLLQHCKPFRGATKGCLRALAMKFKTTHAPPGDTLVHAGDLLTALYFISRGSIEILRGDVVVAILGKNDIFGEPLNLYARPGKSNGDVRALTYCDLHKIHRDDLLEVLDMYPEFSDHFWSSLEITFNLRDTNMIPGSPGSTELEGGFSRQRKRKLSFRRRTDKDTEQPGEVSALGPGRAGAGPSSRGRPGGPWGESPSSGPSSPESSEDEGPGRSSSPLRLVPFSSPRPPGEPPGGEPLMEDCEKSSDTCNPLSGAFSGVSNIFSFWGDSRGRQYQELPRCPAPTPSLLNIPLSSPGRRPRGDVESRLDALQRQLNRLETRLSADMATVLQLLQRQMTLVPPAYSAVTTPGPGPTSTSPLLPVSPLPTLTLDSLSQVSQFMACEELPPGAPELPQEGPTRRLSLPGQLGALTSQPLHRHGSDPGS
row,Structure (SMILES),"hERG current change (%, negative = inhibition) at 1uM [%]"
1,Cc1cc(O)c(C(C)C)cc1N=C1CSC(=O)N1,11
2,COC(=O)c1sc(-c2ccc(C(C)(C)C)cc2)cc1NC(=O)COCC(=O)O,10.3
3,O=C(CN1C(=O)C2CC=C(Cl)CC2C1=O)N1CCOCC1 (stereo not drawn),-3.82
4,CCOC(=O)c1ccccc1NC(=O)c1ccccc1NS(C)(=O)=O,2.08
5,CC1=C(C(=O)OCc2ccccc2)C(c2ccco2)C2=C(CC(C)(C)CC2=O)N1 (stereo not drawn),3.17
6,C#CCN1C(=O)C(O)(CC(=O)c2cccc(OC)c2)c2ccccc21 (stereo not drawn),10.3
7,COc1cccc2c(=O)ccoc12,6.57
8,CC(C)Oc1c(N2CCOCC2)c(=O)c1=O,15.1
9,CC(Oc1cccc(Cl)c1)C(=O)Nc1ccc(N2CCOCC2)cc1N1CCOCC1 (stereo not drawn),5.26
10,Nc1cccnc1Sc1cc(Cl)cc(Cl)c1,4.33
11,CC12CCC(C(=O)NNc3ccccc3)(OC1=O)C2(C)C (stereo not drawn),12.2
12,Cc1nnc(NC(=O)C2CCCC2)s1,13.3
13,Cc1ccccc1OCCn1nc(C(=O)O)c2ccccc2c1=O,9.14
14,CCOc1cccc2sc(N(CCN(CC)CC)C(=O)c3cccc(N4C(=O)CCC4=O)c3)nc12.Cl,-45.6
15,Cc1cn2c(nc1=O)OC1C(O)C(COC(=O)c3ccccc3)OC12 (stereo not drawn),14.8
16,COc1ccccc1CCn1cc(C#N)c(=O)[nH]c1=O,15.2
17,COc1cccc(-n2c(N)cc(=O)nc2SCC(=O)N2CCN(c3ccccc3)CC2)c1,6.58
18,NC(=O)c1nsc(C(=O)N(CC(=O)NC2CCCC2)c2ccc(F)c(Cl)c2)c1N,10.4
19,Cc1ccc(C2(c3noc(CN4CCOCC4)n3)CCCC2)cc1,6.75

row,Structure (SMILES),"hERG current change (%, negative = inhibition) at 1uM [%]"
1,COc1ccc(C(=S)N2CCOCC2)cc1OC(=O)c1ccc([N+](=O)[O-])cc1,5.41
2,CCN(c1ccccc1)S(=O)(=O)c1ccc(Cl)c(NC(=O)CN2C(=O)NC3(CCCC3)C2=O)c1,11.8
3,Cc1ccc(-n2nc3c(c2NC(=O)C2CCCC2)CS(=O)(=O)C3)cc1,13.5
4,Cn1c(O)c(C(=NCCN2CCCCC2)c2ccccc2Cl)c(=O)n(C)c1=O,8.15
5,O=C(c1ccc(COc2ccccc2Cl)o1)N1CCOCC1,4.23
6,Brc1ccc(-c2nnc3n2C2(CCCC2)Cc2ccccc2-3)o1,0.695
7,CC(C)(C)n1nnnc1C(c1cccs1)N1CCCc2ccccc21 (stereo not drawn),-1.04
8,CCOc1ccc2oc(C(=O)N(C)CCc3ccc(OC)c(OC)c3)c(C)c2c1,4.82
9,CCCCN(C(=O)/C=C/c1ccco1)c1c(N)n(Cc2ccccc2)c(=O)[nH]c1=O,7.19
10,Cc1cc(S(=O)(=O)NCC(C)C)ccc1OCC(=O)NCc1ccco1,-35.8
11,O=C(/C=C/c1ccccc1)NC(=S)NNC(=O)c1cccnc1,17.6
12,CCN(C(=O)COC(=O)c1ccc(Cl)nc1)C1CCS(=O)(=O)C1 (stereo not drawn),12.1
13,Cc1ccc(NC(=S)Nc2ccc(Cl)c(Cl)c2)c(OC(F)F)c1,13.8
14,O=C(Nc1cccc(/C=C/c2ccccn2)c1)c1cc(Cl)ccn1,8.27
15,CC(=O)Nc1ccc(NC(=O)CSc2ncnc3c2cnn3Cc2ccccc2)cc1,6.3
16,O=C(OCc1cccc(Cl)c1)c1cc([N+](=O)[O-])ccc1N1CCOCC1,-5.04
17,COc1ccc(C2C(C(N)=O)=C(C)Nc3nc(-c4ccccc4)nn32)cc1OC (stereo not drawn),12.1
18,CC12CN3CCN(C1)CC(C)(C3)C2=NN,9.74
19,CN(c1ccccc1)S(=O)(=O)c1ccc2c(c1)oc(=O)n2C,13.3

row,Structure (SMILES),"hERG current change (%, negative = inhibition) at 1uM [%]"
1,O=C(COc1cccc2c1CCN(Cc1ccc(Cl)cc1)C2=O)N1CCOCC1,-19.8
2,COCCN(C(=O)COC(=O)CCc1nc2ccccc2s1)c1c(N)n(Cc2ccccc2)c(=O)[nH]c1=O,9.84
3,Cc1cc(S(=O)(=O)NCc2ccco2)c(C)cc1Cl,6.89
4,CC(CCC(=O)Nc1nncs1)C(=O)O (stereo not drawn),3.35
5,C=CCNC(=O)C1CC(=O)N(c2ccc(OCC(=O)Nc3ccccc3)cc2)C1 (stereo not drawn),4.97
6,Cc1ccc(-n2c3nc(=O)[nH]c(=O)c-3cc3cc([N+](=O)[O-])ccc32)cc1C,-1.18
7,COc1cc(NS(=O)(=O)c2ccc(NC(=O)COc3ccc(C)cc3C)cc2)nc(OC)n1,-1.76
8,Cc1cccc(NC(=O)CCc2nc3sc4c(c3c(=O)[nH]2)CCCC4)n1,1.39
9,Cc1nnc(N2C(=O)c3cccc4c([N+](=O)[O-])ccc(c34)C2=O)s1,9.77
10,CC1CN(C(=O)CCC(=O)NCc2ccccc2Cl)c2ccccc2S1 (stereo not drawn),8.92
11,CC(C)P(=O)(Cc1cccc(C#N)c1)C(C)C,12
12,CC(C)OC(=O)CSc1nc(-c2ccc(F)cc2)cc(C(F)(F)F)n1,16.3
13,O=C(CCc1ccc(S(=O)(=O)N2CCOCC2)cc1)NN=C1CCCCCCC1,10.4
14,Cc1ccc(S(=O)(=O)NNC(=O)CCC(=O)Nc2ccc(C)c(C)c2)cc1,7.38
15,O=c1[nH]c(=S)n(C2CC2)c(O)c1C=Nc1cccc(C(F)(F)F)c1,16.3
16,CNC(=S)N1CCC(NC(=O)c2ccco2)CC1,5.49
17,Cc1nnsc1S(=O)(=O)Cc1ccccc1C(F)(F)F,10.8
18,CC1(C)CC(=O)C/C(=N/NC(=O)C2CCN(S(=O)(=O)c3cccs3)CC2)C1,10.9
19,CCOC(=O)c1sc2nc(C)nc(SC(C)C(=O)NC3CC3)c2c1C (stereo not drawn),9.55
